Assay results published in publication PMC12136788.
This is one part of the list.

B1: chr3:95749504:95749505:+_ENSMUSG00000015749_ENSMUST00000165307|mus_hu|FALSE|FALSE (ssRNA)
RNA: GGGAGUUCUACAGUCCGACGAUCUAUUAUAGCAAACUGUAAUUUCAGUUAAUUUAUAAAUAAGGAAUGAAAUGCACCAUACUACACCUGUGUAAAAGUGAUCAUGUUUUAAUUAUGGGCUAAAAAUGACUAAUACAGUAAGCUCAACAGAGGAUUGAGCAUCA
B2: chr12:98992399:98992400:+_ENSG00000075415_ENST00000552981|hu_mus|FALSE|FALSE (ssRNA)
RNA: GGGAGUUCUACAGUCCGACGAUCUUUGGGAACAGCUUCCCUCAAGGUGUUGGCAUAACCAGGCUGGGUUUGAAUUCGAACUUUAGCAGCUUCCAUAGGAGCCAGGGCAAUGUCAGCGAAGAAUUCAGCACUGGCAGAAGAAGCCAACAGAGGAUUGAGCAUCA
B3: chr2:49629323:49629324:+_ENSMUSG00000026764_ENSMUST00000028102|mus_hu|motif|central (ssRNA)
RNA: GGGAGUUCUACAGUCCGACGAUCCAUUAUAUAUUUUAGUUCCCAGACAUAAAUCUUGAUAUCUCAAACAACAUUCUCCGGAUUUACCAAUCCACCAUCCUGCAGAUAAAGAUUAUUCAUAUAAACCAUCUGGCUGUUCUCUUACAACAGAGGAUUGAGCAUCA
B4: chr17:65740002:65740003:+_ENSG00000130935_ENST00000581375|hu_hu|hu_hu_hu_mus_False|58_68 (ssRNA)
RNA: GGGAGUUCUACAGUCCGACGAUCAACAAAUCUUUCUUCCCUGGACGAACAGGAAGAUUCAUAUUAACUUUAUAAAAUGUCUAUGAAGUUAGGUGUGGUGGCCACACCUUUACUCCCAGCACUUUGGGAGGUGGAUCUCUGAGUCAACAGAGGAUUGAGCAUCA
B5: chr18:52893488:52893489:-_ENSG00000196628_ENST00000354452|hu_hu|hu_hu_hu_mus_True|8_18 (ssRNA)
RNA: GGGAGUUCUACAGUCCGACGAUCUAUUUAGACCAUUUCCGCGGAGUUAUGGCAUUUACUCAGUGCUGAUAGGUGGAAAAACUACUUCAACAGGGAUUUUUUUUUUCCUUAAUACAUGCCAAGAAUUGUGUGGCUGUAAAACAGCAACAGAGGAUUGAGCAUCA
B6: chr17:60770872:60770873:+_ENSG00000011028_ENST00000303375|hu_hu|hu_hu_hu_mus_True|28_38 (ssRNA)
RNA: GGGAGUUCUACAGUCCGACGAUCUCUUUAAAAAAAAAAAAAAAAAGACAAACAAUAAUAGCACAUUUCGAGAAUCAAGAACUACAAUAGAGGGUCCAUGUCUUCGAGUCCAUGUUCUCGUCCUGCACUGGGACACGGGGACUGCAACAGAGGAUUGAGCAUCA
B7: 26281015_26281314_5479_CDS_ENSMUSG00000026924_ENSMUST00000091252|mouse|control|control (ssRNA)
RNA: GGGAGUUCUACAGUCCGACGAUCGACAAGUUUUGUAGUUUUCUUUGUAUAAACCCCAAAUCCAACCUGGGCCAUCAGGUAGCAGAAGUGUGCAGCAUCCAACAGGCCUUUUGAUGCUAGAGUAUCACCCAUCGUAGCCAUGGUCAACAGAGGAUUGAGCAUCA
B8: 112566153_112598757_504_CDS_ENSMUSG00000021754_ENSMUST00000109267|mouse|control|control (ssRNA)
RNA: GGGAGUUCUACAGUCCGACGAUCGAUCAUUCUCUCCUCCGGGCGAUCCUCCAUCUUGUGCAGUCCUUUGAGGGUUUCUUUAUUCUCCAUCUCUCGACCGGAGGGGGCCGCUGCAGAGGGCGGCUCGGCCCCCGCGGGGCUCCGCAACAGAGGAUUGAGCAUCA
B9: chrX:119387588:119387589:+_ENSG00000177485_ENST00000326624|hu_hu|FALSE|FALSE (ssRNA)
RNA: GGGAGUUCUACAGUCCGACGAUCUGAGAUGCUUUUAACCUGUGACAAUGGGACACCAAGCUCUGCUAUAAAUUUCACUCCUAAUAACUGCCCUGAUUUAAUUAACUCAUCAAGCAAAUCUGAUCUAACACGAACAAUUUUAGACAACAGAGGAUUGAGCAUCA
B10: chr5:54693298:54693299:+_ENSG00000039123_ENST00000230640|hu_hu|FALSE|FALSE (ssRNA)
RNA: GGGAGUUCUACAGUCCGACGAUCUUUUAAAACACUCUGUCUAUUGUCCACCGGCCGAAGGUCUUUAGGAAUGUAAAGCCUAACACUGCUGAUAGCAGACAGGAGAUGCACCAAAACUGGGACAACCUGCAUCUCUCCUUUCUCCAACAGAGGAUUGAGCAUCA
B11: chr10:98487791:98487792:+_ENSMUSG00000019943_ENSMUST00000020107|mus_hu|FALSE|FALSE (ssRNA)
RNA: GGGAGUUCUACAGUCCGACGAUCUCAUGCAGCACAUUAAUGGCAAAACCAAGACUAGAAACCAGGUCUUGACUCCUAGUCUAAUAUGCUUUCCAGCAUAUCAUGCUACCUCUUUUUUACAGUAUGAUUCACUAUAAAUACCUGCAACAGAGGAUUGAGCAUCA
B12: chr19:29101771:29101772:-_ENSMUSG00000024782_ENSMUST00000025696|mus_mus|FALSE|FALSE (ssRNA)
RNA: GGGAGUUCUACAGUCCGACGAUCAGCAGUAAGGCGCUGUUUAAUGACCUCAAAGGGCACGUUGAGAUUUAUCACUGUGUCUAUCUGAUAAACUUUAUCCAGGGCUUCUGCCUGUGGAAGUGUCCUUGGAAAUCCAUCCAACAGCAACAGAGGAUUGAGCAUCA
B13: chr7:141450121:141450122:+_ENSG00000106028_ENST00000265304|hu_mus|hu_hu_hu_mus_True|18_108 (ssRNA)
RNA: GGGAGUUCUACAGUCCGACGAUCUCAUCCUUUCUACGCCUUUUCUUUUGUCUGGUCACUCAGAAAUAUAAUGUUAUCAGCUAUGAUUGUUGUUGCUUGCCGCCUCACAUUGUUUUUAUCCAUGUAUUCGCCAUAGUCCACUUUCAACAGAGGAUUGAGCAUCA
B14: chr6:53156713:53156714:-_ENSG00000012660_ENST00000304434|hu_hu|motif|central (ssRNA)
RNA: GGGAGUUCUACAGUCCGACGAUCGACAGAGCAGAUAAAUGUGGGUAUAUAAUUGUCCAGAAGAAACCAUCCUUUUACUCGGGUAUCUCGAGGGCCUAGCAAUGCCUUGAAAUAGGUACUAAGUGAUGCAUCAAAAUGUUCCAUCAACAGAGGAUUGAGCAUCA

target: T1, UNK ZnF1-3 (human, UniProt Q9C0B0 31-174); assay: nsRBNS (natural sequence RNA bind-n-seq); RBNS binding buffer (assumed for nsRBNS): 25 mM Tris pH 7.5, 150 mM KCl, 3 mM MgCl2, 0.01% Triton X-100, 500 ug/ml BSA, 20 U/ml SUPERase-In, 4 C; UNK is unkempt and MSI1 is Musashi-1; names of the RNAs are library labels; protein concentration not given here; high values mean tight binding
T1 sequence: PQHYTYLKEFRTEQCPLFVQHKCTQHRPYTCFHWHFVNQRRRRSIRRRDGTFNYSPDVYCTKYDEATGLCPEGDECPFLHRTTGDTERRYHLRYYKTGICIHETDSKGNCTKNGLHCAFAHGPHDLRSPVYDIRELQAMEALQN

Row | Binder | binding signal
1 | B1 | 1.41 enrichment R
2 | B2 | 1.44 enrichment R
3 | B3 | 1.08 enrichment R
4 | B4 | 0.662 enrichment R
5 | B5 | 1.05 enrichment R
6 | B6 | 2.38 enrichment R
7 | B7 | 1.03 enrichment R
8 | B8 | 0.82 enrichment R
9 | B9 | 1.01 enrichment R
10 | B10 | 0.701 enrichment R
11 | B11 | 0.574 enrichment R
12 | B12 | 0.953 enrichment R
13 | B13 | 0.376 enrichment R
14 | B14 | 1.65 enrichment R
